# Laboratory results: PubChem BioAssay (NCATS)
# Inconclusive means that the source gave no clear call. Such entries were picked first, then a sample of the others. A call without a number means that no potency is given here. For some assays here: Where the call is inconclusive, the potency comes from a doubtful curve fit. Activity calls are given as the source filed them. Calls come from the whole dose curve; as a rule, active = well fitted curve in the direction sought with a large enough effect; inconclusive = small, poorly fitted or top-dose-only effect, or another doubt; inactive = no such curve, though single readings can be large; an effect the other way counts as inactive or inconclusive.
# What was measured:
# [1] = P-glycoprotein substrates identified in KB-8-5-11 adenocarcinoma cell line, qHTS therapeutic library screen (AID 1346987); note: nearly all actives have a fitted effect of over 65% in size
# Procedure, shortened: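 KB-8-5-11, a colchicine-selected P-gp-overexpressing KB-3-1 subline, was grown without colchicine for the assay. Cells were seeded at 500 cells/well, dosed in concentration-response and incubated 72 h at 37 degree C, 5% CO2. Viability was read by CellTiter-Glo luminescence.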
# [2] = test system: Zika virus NS2B-NS3 protease (unlinked complex); experiment: Primary screen GU Rhodamine qHTS for Zika virus inhibitors: Unlinked NS2B-NS3 protease assay (AID 1347159); note: nearly all actives have a fitted effect of over 60% in size
# Procedure, shortened: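 A qHTS format was used, with compound concentrations ranging up to 114 microM. Each compound was preincubated with 25 nM NS2B-NS3 protease, and the substrate was then added at 1.5 microM. Curves were fitted with a 4-parameter Hill model.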
# [3] = Primary qHTS for inhibitors of nuclear receptor binding SET domain protein 2 (NSD2) in an isogenic RCH-ACV NSD2 p.E1099K mutant (9B) (AID 1645876); note: nearly all actives have a fitted effect of over 70% in size
# HEK293 = experiment: Cytotoxic Profiling of Annotated Libraries Using Quantitative High-Throughput Screening (AID 1296008); conditions: Five cell lines viability, CellTiter-Glo ATP luminescence, 48-72 h; max response: hits give low values; note: nearly all actives have a fitted effect of over 60% in size
# Procedure, shortened: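 Cells exposed to compounds for 48 or 72 hr at 37 degrees Celsius. Viability read as ATP-coupled luminescence with CellTiter-Glo after 10 min at room temperature.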
# PA-1 = experiment: Primary qHTS to identify gynecologic anti-cancer compounds using libraries of approved drugs and bioactive compounds (AID 1345084); conditions: Gynecologic cancer cell panel viability, ATPlite luminescence, 48 h; series mostly up to 57.5 µM; note: nearly all actives have a fitted effect of over 55% in size
# Procedure, shortened: (§1)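 In this quantitative HTS, cell killing is estimated from loss of ATP-dependent luciferase light. Cells see five compound concentrations over a 48 h exposure.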
# [4] = Primary qHTS for inhibitors of nuclear receptor binding SET domain protein 2 (NSD2) in an RCH-ACV wild type WT cells (2C) (AID 1645877); conditions: activity change, negative = cell killing: at 44.9 µM (top of the series) unless noted; note: nearly all actives have a fitted effect of over 70% in size
# [5] = Primary fluorescence-based thiol-reactive (MSTI) qHTS assay for identification of artifact compounds. (AID 1845221);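 note: thiol-reactive compounds lower the probe fluorescence signal; nearly all actives have a fitted effect of over 65% in size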
# Procedure, shortened: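 One-hour, room-temperature, dark incubation of compound with 4 uM MSTI in PBS (pH 7.4, 2% DMSO) precedes a fluorescence read at 525 nm excitation, 598 nm emission; Hill-equation fitting yields concentration-response values.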
# SKOV3 = experiment: Primary qHTS to identify gynecologic anti-cancer compounds using libraries of approved drugs and bioactive compounds (AID 1345084); conditions: Gynecologic cancer cell panel viability, ATPlite luminescence, 48 h; series mostly up to 57.5 µM; note: nearly all actives have a fitted effect of over 55% in size
# Procedure, shortened: as §1
# Tov-21-G = experiment: as above; conditions: Gynecologic cancer cell panel viability, ATPlite luminescence, 48 h; activity change, negative = cytotoxicity: at 57.5 µM (top of the series) unless noted
# Procedure, shortened: as §1
# Potency is the fitted concentration of half-maximal effect; tags give direction and shape of the fitted curve.
compound,measurement,setting,value
CC1(C)CC[C@]2(C(=O)O)CC[C@]3(C)C(=CCC4[C@@]5(C)CC[C@H](O)C(C)(C)C5CC[C@]43C)C2C1 (some centres undefined),Potency,[1],inactive
same,Potency,[2],"inconclusive: 2.82 µM [inhibitor, full curve]"
same,Potency,[3],inactive
same,max response,HEK293,inactive: -9.46%
same,Potency,PA-1,"inconclusive: 3.55 µM [rising, single point]"
CC1=CC(=O)C2C(C)(C)CCCC2(C)C12CCC1(COC(=O)C1)O2 (centres undefined),Potency,[2],"inconclusive: 39.8 µM [inhibitor, partial curve]"
same,Potency,[3],"inconclusive: 11.3 µM [inhibitor, partial curve, poor fit]"
same,Potency,[4],"inconclusive: 11.3 µM [inhibitor, partial curve]"
same,Potency,[5],active: 7.36 µM
same,outcome,HEK293,inactive
same,Potency,PA-1,inactive
same,Potency,SKOV3,inactive
CC(C)(O)[C@@H]1CC[C@]2(CO)[C@@H](O)CC[C@](C)(O)[C@H]2[C@@H]1O[C@@H]1O[C@H](CO)[C@@H](O)[C@H](O)[C@H]1O,Potency,[4],inactive
same,max response,HEK293,inactive: 1.77%
same,Potency,PA-1,inactive
same,Potency,SKOV3,inactive
COC(=O)C[C@H]1C(C)(C)[C@H](OC(=O)c2ccccc2)C2CC3=C4CC(=O)O[C@@H](c5ccoc5)[C@]4(C)CCC3[C@@]1(C)C2=O (some centres undefined),Potency,[1],"inconclusive: 7.96 µM [inhibitor, partial curve, poor fit]"
same,Potency,[2],inactive
same,Potency,[3],"inconclusive: 14.2 µM [inhibitor, single point]"
same,Potency,[4],"inconclusive: 14.2 µM [inhibitor, single point]"
same,Potency,HEK293,"inconclusive: 7.96 µM [inhibitor, single point]"
same,Potency,PA-1,inactive
COc1cc(C)c(C(=O)O[C@H]2[C@@H](O)[C@H](n3ccc(=O)[nH]c3=O)O[C@@H]2CO)c(OC)c1,Potency,[1],inactive
same,outcome,HEK293,inactive
same,Potency,SKOV3,"inconclusive: 0.316 µM [cytotoxic, single point]"
same,Potency,Tov-21-G,inactive
CCNC(=O)[C@H]1O[C@H](n2cnc3c(NCC(c4ccccc4)c4ccccc4)nc(C(=O)NCCNC(=O)NC4CCN(c5ccccn5)CC4)nc32)[C@H](O)[C@@H]1O,Potency,[3],inactive
same,outcome,HEK293,inactive
same,Potency,PA-1,inactive
